The labels stand for the following.
B1: LINE1-mini (parent)
chain: GGCAGAGCUCAACACAGCGUGGCAAAGUGGCUGUGGCUAGACUGCC

Read counts are not given, so values of variants with three or more changes are uncertain.

In the series the parent is B1. Description: self-cleavage, relative activity (ratio to wild type); higher = more cleavage; in vitro, sequencing; the parent is a self-cleaving ribozyme.
Consider GGCUGAUCUCAACACAGCAUGGCAAGGUGGCUGUCGCUAGACUGCC, for which the self-cleavage stood at 0.02.
Regarding GGCUGAGUUCAACACAACGUGGCAAAGUUGCUGUGGCUUUACUGAC, the self-cleavage worked out at 0.04.
Take GGCUGAGCUCAACACAGAGUGGCAUUGUGGCUGUGGCUAGACUGCC: the self-cleavage turned out to be 0.09.
As to GGCUGACCUCAACACAGCGUGGCAAAGUGGCUGAGGCUAGACUGCC, the self-cleavage was determined as 0.08.
Turning to GGCUAUGCUCAACACAGCGUGGCAAAGUGGCUGUGGCUAGACACCC, the self-cleavage was 0.06.
GGCUGAGCUAAACACAGCGUGGCAAAGUGGUUGUGGCUAGAAUGCC: the self-cleavage is 0.05.
Consider GGCUGAGCUCAACACAGCCUUGCAAAGUGGCUGUGGCUAGACUGCC, for which the self-cleavage turned out to be 0.4.
Regarding GGCUGAGCUAAACACAGCUUAGCAAAGUGGCUGUGUCUAGACUGCC, the self-cleavage turned out to be 0.02.
In the case of GGCUCAGCUCAACUCAGCAUGGCAUAGUGGCUGUGGCUAGACUGCC, the self-cleavage came out at 0.07.
As to GGCUUAGCUCAACACUGCGUGGCAAAGUGGCUGUGGCUAGACUGCC, the self-cleavage was 0.26.
For the variant GGCUGAGCUCAAAACAGCGCGGCAAUGUGGCUGUGGGUAGACUGCC, the self-cleavage came out at 0.02.
For GGCUGAGCUAAACACAGCGUGGCUAAGUGCCUGUGCCUAGUCUGGU, the self-cleavage was found to be 0.01.
As to GGCUGAGCUCAACACAGCGUGGUAAAGUGGCUGUGGCUAGAUUGCC, the self-cleavage worked out at 0.27.
Take GGCUAAGCUCAACACAGCGUGGCAAAGUGGCUGUGGCUAGCCAGCC: the self-cleavage was determined as 0.4.
Consider GGCUGAGCUCAACACAACGUGGCAAAGUGGCUGUGGCUAGACUGCA, for which the self-cleavage is 0.05.
With GGCUGAGCUCAAGACAGCGUGGCAAGGUGGGUGUGGCUAGACUGAC the figure was 0.02.
GGCUGAGCUCAACAACGCGUGGCAAAGUGGCUGUGGCUAGACUGCC: the self-cleavage amounted to 0.09.
On to GGCUGAGCUCAACACAACGUGGCAAAGUGGCCGUGGCUAGACUGCC, for which the self-cleavage was determined as 0.12.
For GGCUGAGCUCAACAUAGCGUGAUAAAGUGGCUAUGGCUUGACUGCC, the self-cleavage was 0.16.
In the case of GGCUGAGCUCAACACAGCUCGUCAAAGUGACUGUGGCUAGACUGCC, the self-cleavage worked out at 0.09.
As for GGCUGAGCUCAACAUAGCGUGUCAAAGUGGCUGUUGCUAGACUGCC, the self-cleavage turned out to be 0.13.
Turning to GGCUGAGCUCAAAACAGCGUGGCAAAGUGGCUUUGGCUAGACUGAC, the self-cleavage is 0.09.
As to GGCUGAGCUCAACACAGAGCGGCAAAGUGUCUGUGGCUAGACUGUC, the self-cleavage is 0.12.
On to GGCUGAACUCAGCACAGCGGCGCAAAGUGGCUGUGGCUAGACUGCC, for which the self-cleavage came to 0.03.
With GGCUGAGCUCAACAAAGCGUGGCAAAGUGGCUGUGGCUAGAUUGCA the figure was 0.02; with GGCUGAGCUCAACAAAGCGUGGCAAAGUGGCUCAGGCUAGACUGCC, 0.
Turning to GGCUGAGCUCAAAACAGCGUGGCAAAGUGGCUGUGGCUGAAGUGCC, the self-cleavage turned out to be 0.04.
In the case of GGCUAAGCUCAACACAGCGUAGCAAACUGGCUCUGGCUAGACUGCC, the self-cleavage was found to be 0.03.
Consider GGCUGAGCUCAACACAACGUGGCAAAGUUGCUGUGGCUAGACUGCC, for which the self-cleavage stood at 0.07.
As for GGCUGAGCUCAACACAGGGUGGCAAAGUGUCUGUGGCUAGACUGCC, the self-cleavage worked out at 0.01.
Turning to GGCUGAGCUAAACACAGCUUGGCAAAUUGGCUGUGGCUAGACUGCC, the self-cleavage worked out at 0.03.
Consider GGCUGAGCUCAACACAGCGUGGGAAAUUGGCUGUGGCUAGACUGCC, for which the self-cleavage turned out to be 0.04.
Regarding GGCUGAGCUCAACACAGCGUAGCAAAGUUGCCGUGGCUACACUGCC, the self-cleavage came to 0.01.
Turning to GGCUGACCUCAAUACAGCGUGGAAAAGUGGCUGUGGCUAGACUCCC, the self-cleavage came out at 0.05.
Regarding GGCUAAGCUCAACACAGCGUGGCAAAGUGGCUGUGGCUCGAGUGCC, the self-cleavage stood at 0.04.
Turning to GGCUGAGCUCAACACAGAGUGGCAAAGUGACUGUGGUUAGACUGCC, the self-cleavage is 0.06.
Take GGCUCACCUCAACACAGCGUGGCGAAGUGGCUGUGGCUAGACUGCC: the self-cleavage stood at 0.4.
As to GGCUGAGCUCAACACACUGUGGCAAAGUGGCUUUGGCUAGACUGCC, the self-cleavage is 0.06.
Regarding GGCUGAGCUAAACACAGAGUGCGAAAUUGGCUAUGGCUAGACUGGC, the self-cleavage worked out at 0.01.
For the variant GGCUCCGCUCAACACAGCGUGGCAAAGUGGCUGUGGAUAGACUGCC, the self-cleavage amounted to 0.14.
As to GGCUGAGCUCAACACAGGAUGGCAAAGUGGCUGUAGCUAGACCGCA, the self-cleavage was 0.01.
Consider GGCUUAGUUCAACACAGCGCGGCAAAGUGGCUGUGGCUAGACUGCC, for which the self-cleavage is 0.07.
For the variant GGCUGAGCUCAACACAGCGUGGCAAAGUGGCUGUGGCUAGAGUACC, the self-cleavage worked out at 0.03.
In the case of GGCUGAGCUCAACACAGCUUGGCAAAGUGGCGGGGGCUAGCCAGCC, the self-cleavage amounted to 0.02.
For the variant GGCUAGGCUCAACACAGCGUGGCCAAGUGGCUGUGGCUAGACUGCC, the self-cleavage was 0.04.
As to GGCUGAGCUCAACAGAGCGUGGCAAAGUGGCUGCGGCUACACUGCC, the self-cleavage was 0.03.
With GGCUAAGCUCAACACAGCGUGGCAAAGUGGCUGUGGCUAGACUCCC the figure was 0.06; with GGCUUAGCUCAACAAAGCGUGGCAAAGUGGCUGUGGCUAGACUGCC, 0.07; with GGCUGAGCUCAAAACAGCGUGGCAAAGUGGCUGUGGUAAGACUGCC, 0.07.
For GGCUGAGCUCAACACACCGUGGCAAAGUGGCUGUGGCGAGACUGAC the value was 0.01; for GGCUGAGCUCAACACAGCAUGGCACAGUGUCUGUGGCUAGACUGCC, 0.1.
For GGCUGAUCUCAACACAGCGUGGCAAAGUGUCUGAGGCUAGACUGCC the value was 0.02.
On to GGCUCAGCUCCACACAGCGUGGCAAAGUGGCUGUGGCUAGACUGCC, for which the self-cleavage amounted to 0.07.
For GGCUCUGCUCAACACAGCGUGGCAAAGUGGCUGCGGCUAGACUGCC, the self-cleavage stood at 0.08.
Regarding GGCUAAGCUUAACACAGCGUGUCAAAGUGGCUGCGGCUGGACUGCC, the self-cleavage was 0.05.
For GGCUGAGUUCAACACAGCAUGGCAAAGUGACUGUGGCUAGACUGCC, the self-cleavage came out at 0.14.
